Results reported in the supplement of paper PMC7826260.
The list shows a part of the results. Cleavage of a single-stranded DNA pool by Rep nickase domains was read by sequencing at 3 µM enzyme and 37 °C for 1 h; the strands have 90 letters, of which the middle is given. Numbers give uncut DNA relative to the enzyme-free pool, as log2; more negative means more cut, near 0 not cut, and no call is made. Reads are scaled to the total; values above 0 arise when much of the pool is cut.

Legend:
Test in all cases: uncleaved DNA left, log2 of reads against the no-enzyme library (log2 ratio); higher = less cleavage (more negative = more Rep cleavage of the k-mer); sequences stand for … in CTCGTCCG…ACCGGAGA
[1] = tested on: T1, Rep nickase domain of Muscovy duck circovirus
T1 sequence (protein, residues 1-111, tag omitted): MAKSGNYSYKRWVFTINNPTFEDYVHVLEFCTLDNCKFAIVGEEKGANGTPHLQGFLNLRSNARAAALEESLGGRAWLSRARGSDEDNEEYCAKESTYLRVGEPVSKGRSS
Description: (§1)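 A pool of 90-nt single-stranded DNAs with seven random bases just before the constant AC of the nick site (name = the seven bases) was cut by 3 µM recombinant His6-SUMO-tagged Rep nickase domain (300 nM DNA, 50 mM HEPES pH 8.0, 50 mM NaCl, 1 mM MnCl2, 1 h, 37 °C, three replicates). Uncut DNA was amplified and sequenced.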

[2] = tested on: T2, Rep nickase domain of banana bunchy top virus
T2 sequence (protein, residues 1-94, tag omitted): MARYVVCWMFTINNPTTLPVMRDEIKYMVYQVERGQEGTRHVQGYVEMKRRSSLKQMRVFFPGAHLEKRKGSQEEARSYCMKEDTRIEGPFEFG
Description: as §1

[3] = tested on: T3, Rep nickase domain of cabbage leaf curl virus
T3 sequence (protein, residues 1-116, tag omitted): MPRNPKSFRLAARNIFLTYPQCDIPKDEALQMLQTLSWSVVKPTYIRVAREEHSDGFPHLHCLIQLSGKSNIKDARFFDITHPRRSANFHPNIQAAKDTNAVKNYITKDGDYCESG
Description: as §1

[4] = tested on: T4, Rep nickase domain of chickpea chlorotic dwarf virus
T4 sequence (protein, residues 1-124, tag omitted): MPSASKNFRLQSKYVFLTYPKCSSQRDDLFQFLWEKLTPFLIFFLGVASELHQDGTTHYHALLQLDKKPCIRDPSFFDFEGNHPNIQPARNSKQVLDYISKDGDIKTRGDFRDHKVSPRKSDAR
Description: as §1

[5] = tested on: T5, Rep nickase domain of faba bean necrotic yellows virus
T5 sequence (protein, residues 1-98, tag omitted): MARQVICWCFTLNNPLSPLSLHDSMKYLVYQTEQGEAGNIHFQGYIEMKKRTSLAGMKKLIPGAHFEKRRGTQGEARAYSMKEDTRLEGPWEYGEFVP
Description: as §1

[6] = tested on: T6, Rep nickase domain of maize striate mosaic virus
T6 sequence (protein, residues 1-117, tag omitted): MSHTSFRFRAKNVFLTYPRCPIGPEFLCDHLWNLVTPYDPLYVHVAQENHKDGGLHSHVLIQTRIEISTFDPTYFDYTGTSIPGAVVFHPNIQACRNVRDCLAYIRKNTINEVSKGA
Description: as §1

[7] = tested on: T7, Rep nickase domain of porcine circovirus 2
T7 sequence (protein, residues 2-116, tag omitted): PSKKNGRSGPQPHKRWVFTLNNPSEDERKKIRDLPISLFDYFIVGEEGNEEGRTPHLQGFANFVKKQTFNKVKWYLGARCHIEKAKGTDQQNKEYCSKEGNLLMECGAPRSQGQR
Description: as §1

[8] = tested on: T8, Rep nickase domain of tomato yellow leaf curl virus
T8 sequence (protein, residues 1-136, tag omitted): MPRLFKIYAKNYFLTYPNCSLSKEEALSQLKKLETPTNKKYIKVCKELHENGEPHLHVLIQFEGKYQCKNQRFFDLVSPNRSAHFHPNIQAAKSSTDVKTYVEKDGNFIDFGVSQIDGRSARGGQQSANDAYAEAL
Description: as §1

[9] = tested on: T9, Rep nickase domain of wheat dwarf virus
T9 sequence (protein, residues 1-137, tag omitted): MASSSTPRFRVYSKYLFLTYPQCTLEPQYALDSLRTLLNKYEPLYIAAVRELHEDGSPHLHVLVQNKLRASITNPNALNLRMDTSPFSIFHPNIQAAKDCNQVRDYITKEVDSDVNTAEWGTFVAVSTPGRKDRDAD
Description: as §1

| Sequence | uncleaved DNA left (log2) [1] | uncleaved DNA left (log2) [2] | uncleaved DNA left (log2) [3] | uncleaved DNA left (log2) [4] | uncleaved DNA left (log2) [5] | uncleaved DNA left (log2) [6] | uncleaved DNA left (log2) [7] | uncleaved DNA left (log2) [8] | uncleaved DNA left (log2) [9] |
| --- | --- | --- | --- | --- | --- | --- | --- | --- | --- |
| AATCTGA | 0.0255 | -0.0793 | 0.0116 | 0.428 | -0.0525 | 0.86 | 0.0262 | -0.123 | -0.0251 |
| TTCCTGC | -0.0546 | -0.146 | -0.481 | -0.759 | -0.0117 | -1.11 | -0.065 | -0.16 | -0.0634 |
| TACGTAA | 0.103 | 0.0146 | -0.0871 | -0.816 | 0.0715 | -0.581 | 0.0994 | 0.0038 | -0.0351 |
| TCGTCAT | 0.00649 | -0.02 | 0.15 | -0.229 | -0.127 | 0.0814 | -2.2 | 0.0513 | 0.0896 |
| TTATACT | -4.11 | -0.576 | -3.61 | -3.42 | -0.193 | -2.49 | -3.98 | -0.00835 | -3.51 |
| ACGCGAG | 0.0841 | -0.0117 | -0.232 | 0.0576 | -0.0605 | -0.6 | 0.0436 | 0.00596 | 0.00447 |
| TCTTTTC | -0.07 | -0.172 | 0.0894 | -0.363 | -0.0694 | -0.729 | -0.0185 | -0.064 | -0.0694 |
| CTCATAA | 0.118 | 0.0847 | -0.0626 | -0.344 | -0.0409 | -0.719 | 0.0235 | -0.00345 | 0.0484 |
| GGGGCCT | 0.0183 | 0.0802 | 0.91 | 1.9 | -0.0811 | 2.3 | 0.223 | 0.00632 | 0.209 |
| TTAATAT | 0.0238 | -0.0501 | 0.246 | -0.918 | -0.0366 | -0.212 | -0.0843 | 0.143 | -0.0512 |
| TGTTTGC | 0.0876 | -0.0186 | -0.429 | -0.68 | 0.0523 | -0.999 | 0.137 | 0.152 | -0.0442 |
| ATGACCC | -0.12 | 0.00969 | 0.301 | 0.96 | -0.0195 | 0.814 | 0.0105 | 0.0271 | 0.122 |
| CAGATTC | -0.0199 | -0.0496 | -0.133 | -0.314 | -0.0606 | -0.848 | -0.185 | -0.0185 | -0.0784 |
| AGACGAG | 0.0279 | 0.0847 | 0.0936 | 0.454 | 0.0948 | -0.436 | 0.158 | 0.0268 | -0.000606 |
| TAGTTTC | -0.341 | -0.0121 | -0.0111 | -0.62 | -0.321 | -0.273 | -3.33 | 0.0704 | -0.0244 |
| TCTTGCA | 0.0491 | 0.0196 | -0.72 | -0.718 | 0.012 | -1.17 | 0.137 | 0.129 | -0.0167 |

| Sequence | uncleaved DNA left (log2) [1] | uncleaved DNA left (log2) [2] | uncleaved DNA left (log2) [3] | uncleaved DNA left (log2) [4] | uncleaved DNA left (log2) [5] | uncleaved DNA left (log2) [6] | uncleaved DNA left (log2) [7] | uncleaved DNA left (log2) [8] | uncleaved DNA left (log2) [9] |
| --- | --- | --- | --- | --- | --- | --- | --- | --- | --- |
| TCAGCCG | -0.0892 | -0.116 | -0.859 | -0.438 | -0.0546 | -0.995 | 0.0778 | -0.0376 | -0.126 |
| CACCGTG | -0.0278 | 0.00627 | -0.654 | -0.715 | -0.104 | -1.08 | -0.0136 | -0.07 | -0.154 |
| TAAGCGG | 0.0654 | 0.0726 | 0.348 | 1.19 | 0.0305 | 1.3 | 0.198 | 0.00922 | 0.0874 |
| GTGAGAG | 0.0718 | 0.166 | 0.209 | 0.66 | 0.0163 | 0.0214 | 0.142 | 0.109 | 0.0945 |
| GATCCCC | 0.138 | 0.221 | 0.396 | 0.792 | 0.148 | 0.946 | -0.434 | 0.337 | 0.339 |
| GTCTTTT | -0.309 | -0.0113 | 0.299 | 0.599 | 0.052 | 1.71 | -1.24 | 0.0357 | 0.0269 |
| GGGTAAA | 0.0634 | 0.101 | 0.848 | 2 | 0.00196 | 2.23 | 0.211 | 0.134 | 0.136 |
| TTGGCTC | -0.194 | -0.177 | 0.0778 | -0.537 | -0.0651 | -0.318 | -0.202 | -0.0202 | -0.435 |
| AAGAGAA | 0.154 | 0.12 | 0.206 | 1.1 | 0.121 | 1.14 | 0.0849 | -0.0217 | 0.117 |
| CCAGGGT | 0.112 | 0.0379 | 0.335 | 1.4 | 0.106 | 1.82 | 0.142 | -0.091 | 0.0803 |
| TGACGTC | -0.015 | 0.0191 | 0.225 | 0.36 | 0.0329 | 0.642 | 0.00258 | 0.00164 | 0.0613 |
| GGGATAG | 0.0801 | 0.106 | 0.871 | 2.12 | -0.082 | 2.22 | 0.217 | -0.0228 | 0.121 |
| TGCACGA | 0.0541 | 0.0378 | -0.0708 | -0.0197 | 0.1 | -0.692 | 0.119 | 0.0317 | 0.129 |
| TCGATCC | 0.154 | -0.0214 | 0.212 | 0.00524 | 0.146 | -0.0251 | 0.0471 | -0.0523 | -0.00709 |
| TAACCAG | -0.125 | -0.0145 | -0.773 | -1.43 | -0.0818 | -1.27 | -0.579 | 0.00856 | -0.00447 |
| GGGTCAC | 0.0582 | 0.0581 | 0.814 | 1.9 | -0.00923 | 2.25 | 0.215 | 0.016 | 0.0682 |
